# Experimental data from the supplement of paper PMC3334620.
# Whole data set: some 33,000 sequences, median “E-score (-0.5 to 0.5)” near -0.041, cut for the highest 2% near 0.37. The list shows a part of the results.
# Biological target: T1, Ecm22 (UniProt Q05958)
# T1 sequence: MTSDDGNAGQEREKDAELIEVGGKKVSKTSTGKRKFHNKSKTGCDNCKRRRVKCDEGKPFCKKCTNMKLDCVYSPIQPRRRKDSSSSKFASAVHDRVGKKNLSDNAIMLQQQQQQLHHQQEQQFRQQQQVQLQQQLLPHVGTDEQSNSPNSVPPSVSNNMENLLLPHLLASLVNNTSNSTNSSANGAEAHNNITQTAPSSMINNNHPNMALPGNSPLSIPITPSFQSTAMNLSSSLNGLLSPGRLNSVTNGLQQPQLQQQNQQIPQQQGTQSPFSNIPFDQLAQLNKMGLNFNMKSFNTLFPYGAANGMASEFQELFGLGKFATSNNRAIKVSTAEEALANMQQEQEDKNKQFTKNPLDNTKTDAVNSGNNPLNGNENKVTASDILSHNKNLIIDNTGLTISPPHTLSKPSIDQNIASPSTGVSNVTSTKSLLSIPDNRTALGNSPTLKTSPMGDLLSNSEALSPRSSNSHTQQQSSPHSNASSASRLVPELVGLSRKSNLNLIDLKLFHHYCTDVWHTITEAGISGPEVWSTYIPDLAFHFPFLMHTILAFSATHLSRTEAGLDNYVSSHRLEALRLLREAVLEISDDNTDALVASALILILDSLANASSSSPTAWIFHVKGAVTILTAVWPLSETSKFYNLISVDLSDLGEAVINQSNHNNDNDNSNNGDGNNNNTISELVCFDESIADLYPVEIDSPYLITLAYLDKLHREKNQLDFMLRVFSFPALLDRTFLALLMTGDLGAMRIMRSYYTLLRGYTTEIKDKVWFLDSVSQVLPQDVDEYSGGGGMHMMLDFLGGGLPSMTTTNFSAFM
# Experiment: PBM E-score (8-mer binding enrichment) (E-score (-0.5 to 0.5)); higher = stronger / more preferred TF binding; most listed sequences are background and not binding sites
# Settings: protein concentration: 200 nM; construct: GST-full length
# Procedure, shortened: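 Detection of bound protein used fluorescent anti-GST, with scans normalised by masliner. The proteins were GST-tagged yeast transcription factors applied at about 100-200 nM to universal all-10-mer Agilent arrays made double-stranded by primer extension. Each ungapped eight-base word, pooled with its reverse complement, was scored with an E-score from the Universal PBM Analysis Suite.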
row,Sequence,PBM E-score
1,CTCGGCGA,0.185
2,AAAGGAAA,0.141
3,ATGTAACA,-0.0858
4,AGGAAGGC,-0.00096
5,GCTATAAC,-0.0926
6,CTTCAGAA,-0.108
7,CCCTACGC,-0.174
8,CCCCACCC,0.0352
9,GCCTGAAC,-0.198
10,GGGCCACC,-0.191
11,ATCAGCCC,-0.305
12,CCATATTC,0.0734
13,CAATGTCC,-0.124
14,ACCTTCGG,0.188
15,AAAAACCT,-0.093
16,CTGCCCGA,-0.101
17,AAATCGGC,0.0214
18,AGCAACCA,-0.178
19,CGGTGACC,-0.166
20,AGTATTAG,-0.0209
21,ATTGCCTG,-0.138
22,GAACATTA,-0.0512

row,Sequence,PBM E-score
1,AGGGCCTG,-0.273
2,CCATCACA,-0.254
3,AACTGATG,-0.063
4,CACGGATG,-0.103
5,AAAGGGTA,-0.0295
6,AAGCGCCC,0.0267
7,CAAGGGGA,-0.15
8,TCAAATCA,-0.277
9,CGAGTCTA,-0.0505
10,CGGACAGC,-0.0574
11,CCGAGAGA,0.102
12,ACGCGCGA,0.217
13,AGTTATAT,0.0387
14,AACTCATA,-0.152
15,GTACGAAA,0.467
16,GAACTATA,0.0872
17,ACTCTAGG,-0.187
18,ACTCACCT,-0.149
19,AAAGAGCA,-0.0945
20,CGGGACAG,0.225
21,AGCGCCAA,-0.342
22,GAGTTTCC,0.0316

row,Sequence,PBM E-score
1,GTTGCTCA,0.108
2,ACAGAGTC,0.017
3,GTTACCAA,0.149
4,AATGGCGC,0.0313
5,AAGGTGGA,-0.0387
6,CGGTAAAC,0.206
7,ATGCCAAA,-0.14
8,CGATTACA,0.198
9,AGACATCG,0.0391
10,ATCCTGAA,0.121
11,CACAGCAA,0.146
12,ACTGCTAT,0.0499
13,CGACGTAA,0.244
14,GTCCCCGA,-0.198
15,CGACTCAA,0.163
16,ACCGGTAT,-0.146
17,GCGCAAGC,0.0527
18,ACGCTTAA,-0.0354
19,ACACCAGC,-0.0747
20,TAGACTCA,-0.0381
21,ACTCGGTC,0.229
22,TACCATCA,-0.0824

row,Sequence,PBM E-score
1,AGGGGACC,-0.184
2,CGCTTTGA,0.00616
3,ATAATAAA,0.0541
4,AACTCGCG,0.232
5,ACTAGTCC,-0.272
6,ATTAGTTG,-0.0136
7,GCCTACTA,-0.0227
8,CTAATACC,-0.0714
9,GGGTAAGA,-0.0686
10,TCACCCGA,0.119
11,AAGAGCGG,0.0698
12,AGAGCAAT,-0.0859
13,CACCTTTC,-0.0968
14,GACATTGC,-0.263
15,ATATTTAA,0.0866
16,CGGTACTC,0.0418
17,ATGGTCCC,-0.268
18,GCATAAAC,0.175
19,CGGGCCAA,-0.282
20,CACTAAGA,-0.0885
